For this test, the target named is T1, Cdc2 (human, UniProt P06493).
T1 construct: Endogenous cellular protein; also called cellular Cdc2; Cdc2 polypeptide
The test can be described thus: GST pull-down from RKO cell lysate, anti-Cdc2 immunoblot.

Results on one molecule are retold here after patent US7005419 (US Dept. of Health and Human Services, dated 2006).

Chain of Cdc2 (P06493 whole entry): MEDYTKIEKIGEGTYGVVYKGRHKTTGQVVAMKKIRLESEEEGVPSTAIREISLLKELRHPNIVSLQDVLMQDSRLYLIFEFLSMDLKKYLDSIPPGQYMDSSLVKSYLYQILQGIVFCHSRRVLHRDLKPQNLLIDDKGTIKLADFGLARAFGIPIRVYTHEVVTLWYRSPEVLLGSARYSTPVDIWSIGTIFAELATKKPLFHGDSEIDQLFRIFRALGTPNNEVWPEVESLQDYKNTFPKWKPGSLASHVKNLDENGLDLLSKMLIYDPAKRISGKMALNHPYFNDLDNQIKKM

B1: GST alone (other)
chain: not shown
notes: Negative control, linked to Sepharose beads
With B1, the binding result is reported as “no binding (tested: 100 ng)”.
